Molecules are shown by their SMILES. In all, about 310,000 compounds went through this assay and about 14,000 (4.5%) showed an effect of 50% or more. Effects have a minus sign here. The list shows a part of the results.
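Further: peak tail current of the secondary pulse compared with the same well before compound.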

In the assay the target is human ether-à-go-go-related gene (hERG) potassium channel (human, UniProt Q12809). The assay is described as follows: primary screen, population patch clamp on CHO cells stably expressing hERG.
human ether-à-go-go-related gene (hERG) potassium channel, sequence (Q12809 whole entry, looked up): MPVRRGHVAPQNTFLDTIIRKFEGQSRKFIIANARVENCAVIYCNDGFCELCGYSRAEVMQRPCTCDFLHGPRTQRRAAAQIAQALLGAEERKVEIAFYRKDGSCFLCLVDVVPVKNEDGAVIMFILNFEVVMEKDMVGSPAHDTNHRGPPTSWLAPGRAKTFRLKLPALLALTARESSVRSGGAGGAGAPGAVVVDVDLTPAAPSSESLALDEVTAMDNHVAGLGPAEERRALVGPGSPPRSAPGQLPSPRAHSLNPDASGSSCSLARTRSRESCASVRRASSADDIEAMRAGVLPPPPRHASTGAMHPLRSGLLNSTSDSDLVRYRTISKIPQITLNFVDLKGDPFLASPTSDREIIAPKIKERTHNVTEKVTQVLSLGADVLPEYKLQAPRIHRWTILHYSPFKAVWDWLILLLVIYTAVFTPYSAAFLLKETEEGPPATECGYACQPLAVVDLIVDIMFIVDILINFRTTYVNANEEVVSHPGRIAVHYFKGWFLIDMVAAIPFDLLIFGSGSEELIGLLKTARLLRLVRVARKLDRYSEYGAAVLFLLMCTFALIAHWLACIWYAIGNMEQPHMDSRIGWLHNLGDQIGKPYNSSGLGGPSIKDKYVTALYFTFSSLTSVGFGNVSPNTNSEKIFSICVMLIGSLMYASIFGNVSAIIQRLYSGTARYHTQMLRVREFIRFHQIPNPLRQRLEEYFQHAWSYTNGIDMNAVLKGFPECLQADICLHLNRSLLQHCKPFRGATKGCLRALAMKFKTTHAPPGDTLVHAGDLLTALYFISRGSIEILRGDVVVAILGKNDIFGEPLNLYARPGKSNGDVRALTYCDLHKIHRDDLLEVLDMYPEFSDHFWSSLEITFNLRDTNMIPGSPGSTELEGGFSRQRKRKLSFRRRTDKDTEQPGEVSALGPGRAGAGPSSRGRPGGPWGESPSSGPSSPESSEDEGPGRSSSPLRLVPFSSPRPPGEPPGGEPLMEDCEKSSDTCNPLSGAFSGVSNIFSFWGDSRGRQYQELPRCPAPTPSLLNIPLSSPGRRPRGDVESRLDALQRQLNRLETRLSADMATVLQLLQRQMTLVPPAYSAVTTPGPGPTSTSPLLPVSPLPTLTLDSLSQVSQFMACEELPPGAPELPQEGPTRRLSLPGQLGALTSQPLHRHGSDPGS
As to `Cc1ccc(CNC(=O)c2ccc(Cn3cc(-c4ccc(C)cc4)nc3-c3ccncc3)cc2)cc1`, the “hERG current change (%, negative = inhibition) at 10uM” value is on record as 5.94%.
In the case of `COc1ccc(C2=NN(C(=O)c3ccncc3)C(c3ccccc3O)C2)cc1` (centres unmarked) it was -10.4%; in that of `Cc1cc(OCC(=O)Nc2ccncc2)ccc1[N+](=O)[O-]`, -41.4%.
In the case of `Cc1cccc(Cl)c1OCCN1CCCC1.O=C(O)C(=O)O` it was -13.3%; in that of `CCC1SC2=NC(C)=C(C(=O)OC)C(c3ccc(C)cc3)N2C1=O` (centres unmarked), 1.17%.
In the case of `CCC(C)C(NC(=O)c1ccccc1NC(=O)c1ccco1)C(=O)NNC(=O)c1ccc(OC)cc1` (centres unmarked) it was 3.97%; in that of `C=CCN(c1ccc(C(=O)N2CCCC2)cc1)S(C)(=O)=O`, -2.5%.
Take `CC(=NC1CCN(Cc2ccccc2)CC1)c1c(O)n(C)c(=O)n(C)c1=O`: the “hERG current change (%, negative = inhibition) at 10uM” value is reported as -39.1%.
In the case of `CC(=O)c1cccc(Nc2nc(-c3cccc([N+](=O)[O-])c3)cs2)c1.Cl` it was 0.359%; in that of `CCOc1ccc(N(Cc2ccc(OC)c(OC)c2)C(=O)c2ccco2)cc1`, -2.67%.
As for `Cc1nn(CC(=O)NC(=O)NC2CCCC(C)C2C)c(=O)c(C#N)c1C` (centres unmarked), the “hERG current change (%, negative = inhibition) at 10uM” value was -11.6%.
For the molecule `COC(=O)c1ccc(/C=N/N2CCN(Cc3ccc(C)cc3C)CC2)cc1`, the “hERG current change (%, negative = inhibition) at 10uM” value is on record as 5.11%.
As for `Cc1ccccc1C1CC(c2cccs2)Nc2nnnn21` (centres unmarked), the “hERG current change (%, negative = inhibition) at 10uM” value is on record as -7.42%.
In the case of `Cc1cccc(NC(=S)NN2CCN(C)CC2)c1C` it was 8.29%; in that of `CCOC(=O)c1cnc(Cc2ccccc2)[nH]c1=O`, 9.93%.
In the case of `COc1cccc(C(=O)NCCNC(=O)c2ccccn2)c1` it was 13.1%.
In the case of `Cc1ccc2nnc(Cl)n2n1`, the “hERG current change (%, negative = inhibition) at 10uM” value was determined as 12.9%.
In the case of `CCOc1cc(/C=N/NC(=O)Cn2nc([N+](=O)[O-])cc2C)cc(Br)c1OCc1ccccc1C` it was 10%.
On to `C=CCn1c(Oc2cc(C)ccc2C)nc2c1c(=O)n(C)c(=O)n2C`, for which the “hERG current change (%, negative = inhibition) at 10uM” value is on record as -14%.
In the case of `COc1ccc(/C=C(\C#N)C(=O)NC(C)c2ccccc2)cc1O` (centres unmarked) it was -24.2%.
In the case of `CC(=O)NS(=O)(=O)c1ccc(NC(=O)c2ccccc2F)cc1` it was -3.06%; in that of `COc1ccc(-c2cc3cc(OC)c(OC)cc3c(C)n2)cc1`, 18.1%; in that of `CCC1CCc2sc(C(=O)NNC(=S)NCC3CCCO3)cc2C1` (centres unmarked), 24.1%.
In the case of `CCOC(=O)/C(=N\Nc1cccc(Cl)c1)Sc1nnc(-c2ccc(OC)cc2)n1C` it was -24.4%.
Turning to `O=C(O)CCN1C(=O)c2ccc(NC(=O)c3cccs3)cc2C1=O`, the “hERG current change (%, negative = inhibition) at 10uM” value is listed as 10.7%.
In the case of `C/C(=N\NC(=S)NCC(C)(C)C)c1cc(F)cc(F)c1O` it was 17.2%; in that of `Cc1ccc(S(=O)(=O)N(C)C)cc1NC(=O)COC(=O)CC1CCCC1`, -74.2%; in that of `Cc1c(C=O)c(Cl)n(C)c(=O)c1C#N`, 22.6%.
In the case of `CCOC(=O)C1CCCN(C(=O)C2CCCN(S(=O)(=O)c3ccc4c(c3)oc(=O)n4C)C2)C1` (centres unmarked) it was -22.8%.
Turning to `Cc1nc(=O)c(-c2ccccc2)c(C)n1Cc1ccccc1`, the “hERG current change (%, negative = inhibition) at 10uM” value is reported as 10.4%.
`Cn1ncc(Br)c1C(=O)N1CCc2ccccc21`: the “hERG current change (%, negative = inhibition) at 10uM” value is listed as 1.62%.
In the case of `COc1cc(OC)cc(C(=O)OCC(=O)c2ccc(S(=O)(=O)N3CCCCC3)cc2)c1` it was -7.77%; in that of `Cc1ccc2oc3c(c(=O)c2c1)C(c1cccc(O)c1)N(c1ccccn1)C3=O` (centres unmarked), 6.49%; in that of `C=CCNC(=O)c1ccc(CN(c2ccc(OCC)cc2)S(=O)(=O)c2ccc(C)cc2)cc1`, -62%.
In the case of `C=CCn1c(COc2cccc3cccnc23)nnc1SCC(=O)O` it was 12.7%; in that of `Cc1c(C)n(CCCN(C)C)c2ncnc(NC3CCCCC3)c12`, -37.7%.
For `CCOc1ccc(S(=O)(=O)Oc2ccc3ccccc3c2)cc1`, the “hERG current change (%, negative = inhibition) at 10uM” value is on record as 9.44%.
In the case of `O=C(NC1CCCCCC1)C1CC(=O)N(c2ccc(Cl)cc2)C1` (centres unmarked) it was 1.66%; in that of `C/C(=N/NC(=O)CNC(=O)C1COc2ccccc2O1)c1ccc2c(c1)OCCO2` (centres unmarked), -1.69%; in that of `CCOC(=O)C1CCN(c2ncnc3c2[nH]c2cccc(OC)c23)CC1`, -0.393%.
In the case of `O=C(O/N=C1/CCCc2occc21)c1ccc(F)cc1` it was 56.5%.
As to `CCn1c(SCC(=O)Nc2cccc(OC)c2)nnc1-c1ccc(Cl)cc1`, the “hERG current change (%, negative = inhibition) at 10uM” value was determined as 9.25%.
In the case of `O=C(NCc1ccc(F)cc1)C1CCC(CNS(=O)(=O)c2cccs2)CC1` (centres unmarked) it was -7.03%; in that of `NC(=O)c1cnn(-c2cccc(Cl)c2)c1N`, 1.32%; in that of `COc1ccccc1C(=O)C1Nc2ccccc2-c2nnc(SC)nc2O1` (centres unmarked), -11.6%.
In the case of `Cc1ccsc1/C=N/n1c(-c2cc(-c3ccccc3)n[nH]2)n[nH]c1=S` it was 21.2%; in that of `COCCn1c(=O)[nH]c2cc(C(=O)N3CCN(c4ccc(OC)cc4)CC3)ccc2c1=O`, -4.32%; in that of `O=C(N/C=N/OCc1ccc(Cl)cc1Cl)NOCc1ncc(C(F)(F)F)cc1Cl`, 14.6%.
In the case of `O=C(Nc1cc(Cl)ccc1Cl)N1CCCC1` it was 1.62%; in that of `CCOC(=O)c1c(NC(=O)c2ccccc2Br)sc2c1CCc1ccccc1-2`, 23.5%; in that of `COc1ccc(Nc2nc(=O)[nH]nc2C)cc1`, 19.2%.
For the molecule `O=C(CSc1nnc2c(n1)[nH]c1ccc(F)cc12)NC1CC1`, the “hERG current change (%, negative = inhibition) at 10uM” value is listed as -5.27%.
For `COc1cc(/C=N/NC(=O)COc2cc(C)cc(C)c2)ccc1OS(=O)(=O)c1ccc(C)cc1`, the “hERG current change (%, negative = inhibition) at 10uM” value came to 8.61%.
In the case of `CCOC(=O)CCc1cccc2c1CCC2=O` it was 12.5%; in that of `CCCC1OC2CC3C4CCC5=CC(=O)C=CC5(C)C4C(O)CC3(C)C2(C(=O)O)O1` (centres unmarked), 8.24%; in that of `COc1cccc(-n2nnc3c(=O)n(Cc4ccc(Cl)cc4)cnc32)c1`, 4.62%.
On to `O=C(CCn1c(=O)c2cccn2c2cccnc21)N1CCN(c2cccc(Cl)c2)CC1`, for which the “hERG current change (%, negative = inhibition) at 10uM” value is recorded as -58.8%.
In the case of `COc1ccccc1NC(=S)NCC1CCCCC1` it was -30.6%; in that of `C=CCOc1ccc(C2CC(C)=NN2c2ccccc2)cc1` (centres unmarked), 10.3%.
Consider `COc1ccccc1NCCC(=O)OCC(=O)NCc1ccco1`, for which the “hERG current change (%, negative = inhibition) at 10uM” value is on record as 23.7%.
In the case of `CCN(CC(=O)Nc1ccc(NC(C)=O)cc1)C(=O)COc1ccccc1Cc1ccccc1` it was -18.9%; in that of `COc1ccc(C(=O)C2CN(C)CC2C(=O)c2ccc(OC)cc2)cc1` (centres unmarked), -57.9%; in that of `O=S(=O)(Nc1nccs1)c1ccc(Cl)cc1`, -6.03%.
Turning to `C[C@H](NC(=O)c1nc[nH]c1C(=O)N1CCN(C(=O)OC(C)(C)C)CC1)C(=O)OC(C)(C)C`, the “hERG current change (%, negative = inhibition) at 10uM” value is 2.39%.
In the case of `COc1ccc(N2CCN(C(=O)c3ccc(NS(=O)(=O)c4ccc(F)c(F)c4)cc3)CC2)cc1` it was -44.3%; in that of `O=C(Nc1ccccc1[N+](=O)[O-])c1ccc(S(=O)(=O)N2CCCC2)cc1`, 1.84%; in that of `O=c1c(Cc2ccc(F)cc2)c(O)ccn1C1CC1`, 15%.
For `CC(C(=O)NCc1ccccc1)N1C(=O)CN(C)C(=O)c2ccccc21` (centres unmarked), the “hERG current change (%, negative = inhibition) at 10uM” value is reported as 11.6%.
In the case of `CCCCn1c(CCC(=O)O)nc2cc(S(=O)(=O)N(C)C)ccc21` it was 15.3%; in that of `CCOCCCNCc1cccc(OC)c1.O=C(O)C(=O)O`, 3.11%.
In the case of `COc1nnc(-c2ccc(N3CCOCC3)c(NC(=O)c3ccc(C)cc3)c2)c2ccccc12` it was -68.9%; in that of `COC(=O)Cn1c(=O)c2c(n(Cc3ccccc3)c1=O)N/C(=C/c1ccc(OC)cc1)C2=O`, 1.39%; in that of `S=c1[nH]ncn1NCc1ccc(Cl)cc1Cl`, 10.2%.
Take `COc1ccc(-c2c(C(F)(F)F)[nH]n3c(=O)cc(-c4ccccc4)nc23)cc1`: the “hERG current change (%, negative = inhibition) at 10uM” value was determined as 8.64%.
In the case of `O=C(NNC(=O)c1ccc[nH]1)c1cc(Cl)cc(Cl)c1` it was 19.3%; in that of `COC(=O)Nc1nc2ccc(Br)cc2s1`, 9.64%.
As to `CCCCOc1ccc(C(O)(CC)CCN2CCOCC2)cc1` (centres unmarked), the “hERG current change (%, negative = inhibition) at 10uM” value was -13.4%.
`CCN(CC)c1ccc(C(=O)OCC(=O)NCC2CCCO2)cc1` (centres unmarked): the “hERG current change (%, negative = inhibition) at 10uM” value is on record as -31.2%.
In the case of `Cc1onc(-c2c(F)cccc2Cl)c1C(=O)Nc1cccc2nsnc12` it was -20.6%; in that of `C=CCC1(C#N)C(=S)NC(C)=C(C(=O)OCC)C1c1ccccc1` (centres unmarked), 4.07%.
In the case of `Br.Cc1ccnc(Nc2nc(-c3ccccc3)cs2)c1` it was -3.4%; in that of `COc1cc2c(cc1OC)C(C)N(C(=O)c1ccc(Cl)c(S(=O)(=O)N3CCCCC3)c1)CC2` (centres unmarked), -40.1%.
In the case of `CC(C)NC(=O)c1ccc(C(C)C)cc1` it was 25.4%; in that of `O=C(Nc1nnc(CCc2ccccc2)s1)c1cccs1`, 15.4%; in that of `COc1cc(OC)cc(C(=O)N[C@H](C(=O)OCC(=O)Nc2sccc2C#N)C(C)C)c1`, -13.3%.
With `O=C(Nc1cccc(-n2cnnn2)c1)c1ccc(OC(F)(F)F)cc1`, the “hERG current change (%, negative = inhibition) at 10uM” value is listed as -47.4%.
In the case of `O=C(CNC(=O)c1ccccc1)OCc1nnc(-c2ccc(Cl)cc2)o1` it was -10.4%; in that of `CC(=O)Nc1cccc(C(=O)NCC2(N3CCCCC3)CCCCC2)c1`, 19.4%.
In the case of `O=C(OCc1nnc(-c2ccccc2)o1)C1CC(=O)N(c2ccccc2)C1` (centres unmarked) it was -21.5%.
